In all, about 48,000 compounds went through this assay and about 120 (0.25%) were called active. Not shown: some 4% with an inconclusive outcome. The call rests on the fitted dose curve; in most records, active means well fitted activation curve with a large enough effect; inconclusive means small, poorly fitted or top-dose-only effect, or another doubt; inactive means no such curve, though single readings can be large or run the other way. The list shows a part of the results.
Test: Primary qHTS for Identification of Small Molecule Activators of Huntingtin-Antisense Promoter Activity; further: nearly all actives have a fitted effect of over 55% in size
Settings: HEK293 HTT-AS promoter firefly luciferase reporter, 24 h; series mostly up to 57.5 µM; activity change, positive = activation: at the top concentration
Summary of the method: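 Luminescence was read after Dual-Glo reagent and a 10 min room-temperature incubation. Values were normalized to vehicle (0% activity) and zero RLU (-100% activity). Reporter HEK293 cells had been exposed to compounds (up to 57.5 uM final) for 24 h.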

Activity change, positive = activation, inactive:
Cc1ccc(NC(=O)CN2C(=O)CCc3cc(S(=O)(=O)N4CCOCC4)ccc32)cc1F -12.2%
COc1ccc(OC)c(CNC(=O)c2ccc(Sc3ccc(C)cc3)c(N)c2)c1 -43.5%
Cn1cc(-c2ccc3nnc(Sc4ccc5ncccc5c4)n3n2)cn1 2.2%
CCc1ccc(-n2nc(C)c3c(C)cc(=O)n(Cc4nc(-c5ccccc5)oc4C)c32)cc1 -1.45%
COc1ccc(NC(=O)c2oc3ccc(S(=O)(=O)N4CCCCC4)cc3c2C)cc1 -60.8%
CCOc1ccc(CNC(=O)C2Cc3ccccc3N2C(=O)CC)cc1OC (stereo unspecified) -8.48%
CCCc1nn2c(=O)cc(COC(=O)c3ccccc3NC(=O)COc3ccccc3F)nc2s1 -12.6%
Cc1cccc(CNC(=O)CCn2c(=O)c3cccn3c3ccc(F)cc32)c1 -1.62%
Cc1nc2c(C(=O)NCCCN(CC(C)C)CC(C)C)cnn2c(C)c1Cc1c(F)cccc1Cl -21.4%
CCCOC(=O)c1c(NC(=O)c2nc3ncccn3n2)sc(C(N)=O)c1C 3.07%
Cc1cc(C)cc(OCC(=O)Nc2c(C)ccc3nsnc23)c1 5.89%
COc1ccc(S(=O)(=O)c2cnc3ccc(Cl)cc3c2N2CCCCC2C)cc1 (stereo unspecified) -25.2%
Cc1ccccc1NC(=O)CSc1nc2nccnc2c(=O)n1CCc1c[nH]c2ccccc12 -12.8%
CCOc1ccc(N(CC)S(=O)(=O)c2cc(Br)cc3c2N(C(C)=O)C(C)C3)cc1 (stereo unspecified) -24.5%
COc1ccc(NC(=O)CSc2nc(-c3ccco3)cc(C(F)(F)F)n2)cc1OC -91.5%
CN(Cc1ccccc1)S(=O)(=O)c1nnc(NC(=O)c2cccc(Cl)c2)s1 -30.5%
Cc1cccc(N2CCN(C(=O)Cn3nc(C)n4cccc4c3=O)CC2C)c1 (stereo unspecified) -2.49%
CCCCN(C)CCCNC(=O)Cn1ncc2c3ccccc3n(Cc3ccccc3)c2c1=O -6.41%
Cc1cccc(NC(=O)CSc2nccn2Cc2ccc(F)cc2)c1C -2.04%
CCOC(=O)c1ccc2c(c1)N(CC(=O)N(C)c1ccccc1)C(=O)c1ccccc1S2 -30.9%
COc1ccccc1NC(=O)c1cc(=O)c2ccc(C)c(C)c2o1 26.9% [at 11.5 µM, percent change from vehicle, -100% = no light]
COc1ccc(-c2cn(-c3ccc(C)cc3)c(S(=O)(=O)CC(=O)Nc3ccc(F)cc3)n2)cc1 -3.53%
Cc1ccc(Cc2c(C)nc3nc(SCC(=O)NC4CCC(C)CC4)nn3c2C)cc1 (stereo unspecified) -17.6%
CCOc1ccc(CCNC(=O)c2cc3c(=O)oc4ccc(C)cc4c3s2)cc1OCC -8.8%
N#C/C(=C\c1ccc(-c2ccc(C(=O)O)cc2)o1)C(=O)Nc1ccccc1C(=O)O -19.3%
Cc1nn(CCC(=O)Nc2cc(F)ccc2F)c(=O)c2nn(-c3ccccc3)c(C)c12 -6.62%
CC1CCCCN1C(=O)CSc1n[nH]c(-c2ccccc2Cl)n1 (stereo unspecified) 13.7%
O=C(CC1N=C2c3ccccc3N=C(SCc3cccc(Cl)c3)N2C1=O)NCc1ccc2c(c1)OCO2 (stereo unspecified) -40.4%
COc1cc(Nc2nc(SCC(=O)c3ccc(Br)cc3)nc3ccccc23)cc(OC)c1 -32.7%
COc1cccc(CNCCNC(=O)c2nonc2N)c1 -10.3%
COC(=O)c1ccc2c(C(=Nc3ccc(N(C)C(=O)CN4CCN(C)CC4)cc3)c3ccccc3)c(O)[nH]c2c1 -24.4%
Cc1cccc(NS(=O)(=O)c2c(C)nc3sccn3c2=O)c1C -28.9%
O=C(NCc1ccccc1Cl)c1cc2c(s1)-c1ccc(Cl)cc1SC2 -0.0486%
CCSc1nc2c([nH]c3ccccc32)c(=O)n1CC -6.11%
CCOc1ccccc1NC(=O)N1CC(CC)Oc2ccccc21 (stereo unspecified) -26.3%
Cc1ccc(C(=O)CSc2nc(-c3ccccc3)nc3c2CCCC3)cc1 -13.6%
CCOC(=O)CSc1nc(-c2ccc(C)cc2C)cc(-c2ccccc2)c1C#N -11.8%
COc1cccc(-n2c(=O)c3c(C)c(C)sc3n(CC(=O)NCc3ccc(C)cc3)c2=O)c1 14.4%
Cc1cccc(CSc2ncc(Cl)c(C(=O)Nc3sc4c(c3C(N)=O)CCCC4)n2)c1 -6.2%
O=C(Cn1c(=O)nc(-c2ccccc2)c2ccccc21)Nc1cccc(C(F)(F)F)c1 -11.2%
Cc1c(C(=O)NCc2cccc(Cl)c2)sc2ncnc(N(C)C3CCCCC3)c12 -29.3%
COc1ccc(C2Nc3ccccc3-c3cc(C)nn32)cc1OC (stereo unspecified) -9.5%
COc1ccc(CNC(=O)CCCN2C(=O)CSc3c2c(C)nn3-c2ccccc2)cc1 -18.2%
COC(=O)c1cc2sc(C)cc2n1Cc1cccc(OC)c1 -31.8%
CCOC(=O)c1c(-c2ccc(OC)cc2)oc2ccc(OCc3ccccc3C)cc12 -7.9%
CN(C/C=C/C#CC(C)(C)C)Cc1cccc2ccccc12 -10.1%
CCOC(=O)c1c(C)[nH]c(C)c1S(=O)(=O)N1CCCC(C(=O)NCc2cccc(C)c2)C1 (stereo unspecified) 2.98%
CCN(CC)CCNC(=O)C1CCN(c2nn3cc(-c4ccc(F)cc4)nc3s2)CC1 7.1%
Cc1cccn2c(=O)c(C(=O)NCc3ccc(F)cc3)c(O)nc12 -13.2%
O=c1cc(-c2ccccc2)nc(SCc2nc(-c3ccccc3Cl)no2)[nH]1 -7.03%
FC1(F)C(F)(F)C(F)(F)C2(F)C(F)(F)C(F)(F)C(F)(F)C(F)(F)C2(F)C1(F)F (stereo unspecified) 1.29%
CCOc1cc(C(=O)Nc2cc3c(cc2N2CCOCC2)n(C)c(=O)n3C)cc(OCC)c1OCC -6.91%
CCCOc1cccc(C(=O)Nc2cccc3cccnc23)c1 28.6%
CCN(C(=O)c1nn(-c2ccc(OC)c(Cl)c2)c(=O)c2c1c1ccccc1n2C)c1cccc(C(F)(F)F)c1 -22.6%
O=C(CN1C(=O)COc2ccc(Cl)cc21)Nc1ccc(F)cc1 -22.6%
O=c1[nH]cnc2c1ncn2[C@H]1CC[C@@H](CO)O1 -5.74%
COc1ccc(-c2nc3ccc(NS(=O)(=O)c4ccc(C)cc4)cc3o2)cc1 -34.7%
CC(C)OCCCNC(=O)c1ccc(CSc2nc3cccnc3n2Cc2ccccc2)cc1 -29.8%
O=C(OCc1cc(=O)n2nc(-c3cccs3)sc2n1)c1ccc(Cl)cc1 6.9%
Cc1ccc(Cn2c(C(=O)NCc3ccccc3Cl)cc3sccc32)cc1 -21%
CCC1=C(c2ccc(C)cc2)S(=O)(=O)N=C1N1CCC(C(=O)Nc2ccccc2F)CC1 -28.3%
